From a compilation of properties of binary mixtures (doi:10.1007/s10953-014-0257-1)
Some of these densities may be calculated back from excess volumes.

Assay: xn = mol fraction of the nth substance listed
Settings: 101 kPa

CCCC[N+]1(C)CCCC1.N#C[C-](C#N)C#N + c1ccc2sccc2c1
mass density [kg/m3]
Settings | x2 = 0 | x2 = 0.1112 | x2 = 0.2212 | x2 = 0.3565 | x2 = 0.5267 | x2 = 0.6111 | x2 = 0.6767
308.15 K | – | 1011.2 | 1022.8 | 1039.2 | – | 1078.1 | 1090.1
318.15 K | 994.7 | 1005.1 | 1016.5 | 1032.8 | 1057.2 | 1071.3 | 1083
328.15 K | 988.7 | 998.9 | 1010.3 | 1026.4 | – | 1064.4 | 1076
338.15 K | 982.7 | 992.9 | 1004.1 | – | 1043.9 | 1057.6 | 1069
348.15 K | 976.8 | 986.9 | 998 | 1013.7 | 1037.4 | 1050.8 | 1062.1
358.15 K | 971 | 980.9 | 991.9 | 1007.5 | 1030.8 | 1044.1 | 1055.1

c1ccc2sccc2c1 + CCCC[N+]1(C)CCCC1.N#C[C-](C#N)C#N
x1 = 1
Settings | mass density [kg/m3]
308.15 K | 1150.8
318.15 K | 1141.8
328.15 K | 1132.9
338.15 K | 1123.9
348.15 K | 1114.9
358.15 K | 1105.9
